Data taken from PubChem BioAssay (NCI).
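96-well plates; 48 h exposure; 5 concentrations. Endpoints by linear interpolation between flanking doses. Not reached: highest tested concentration assigned. Here, GI50 denotes the concentration required for 50% inhibition of growth.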 Not every entry of the source has a single result; some have several. The other results are left out here. There may be further records. For part of these data: Records of one sample usually come from different ranges of test concentrations, which the source does not state; some values may only mark the edge of a range. For part of these data: The records of an entry repeat one measurement in other runs, samples, wells, individuals or studies. Records carry a tag for their origin. Letters hold for one entry only.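 TGI is the concentration that stops growth completely.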

Experiments:
Experiment in all cases: DTP human tumour cell line panel, 48 h
MCF7 breast = tested on: MCF7 breast
HOP-92 NSCLC = tested on: HOP-92 NSCLC
UO-31 renal = tested on: UO-31 renal
HOP-62 NSCLC = tested on: HOP-62 NSCLC
EKVX NSCLC = tested on: EKVX NSCLC
CAKI-1 renal = tested on: CAKI-1 renal
HL-60(TB) leukemia = tested on: HL-60(TB) leukemia
SF-268 CNS = tested on: SF-268 CNS
SK-OV-3 ovarian = tested on: SK-OV-3 ovarian
SF-295 CNS = tested on: SF-295 CNS
HCT-116 colon = tested on: HCT-116 colon
OVCAR-8 ovarian = tested on: OVCAR-8 ovarian
M14 melanoma = tested on: M14 melanoma
HCT-15 colon = tested on: HCT-15 colon
UACC-62 melanoma = tested on: UACC-62 melanoma
UACC-257 melanoma = tested on: UACC-257 melanoma
DLD-1 colon = tested on: DLD-1 colon
SF-539 CNS = tested on: SF-539 CNS
HCC-2998 colon = tested on: HCC-2998 colon
OVCAR-3 ovarian = tested on: OVCAR-3 ovarian
SR leukemia = tested on: SR leukemia
CCRF-CEM leukemia = tested on: CCRF-CEM leukemia
LOX IMVI melanoma = tested on: LOX IMVI melanoma
SN12C renal = tested on: SN12C renal
SK-MEL-28 melanoma = tested on: SK-MEL-28 melanoma
HT29 colon = tested on: HT29 colon

## Nc1ncnc2c(C3OC(CO)C(O)C3O)[nH]nc12 (stereo not drawn)
MCF7 breast
  TGI: 30.1 µM and 611 nM
HOP-92 NSCLC
  TGI: 3.83 µM and 158 nM
UO-31 renal
  TGI: 11.8 µM and 701 nM
HOP-62 NSCLC
  TGI: 17.7 µM and 343 nM
EKVX NSCLC
  TGI: 17.9 µM and 695 nM

## C/C(=N\NC(=O)c1ccccc1O)c1cccc(/C(C)=N/NC(=O)c2ccccc2O)n1
UO-31 renal
  GI50: 4.42 µM [sample A, mean of 5 tests] and 420 nM [sample B, mean of 2 tests]
CAKI-1 renal
  GI50: 27.6 µM [sample A, mean of 3 tests] and 333 nM [sample B, 1 test]
HL-60(TB) leukemia
  TGI: 9.46 µM [sample A, mean of 5 tests] and > 100 µM [sample B, mean of 2 tests]

## COc1cc2c(c(OC)c1OC)-c1ccc(SC)c(=O)cc1[C@@H](NCc1cccc(C#N)c1)CC2
SF-268 CNS
  TGI: 98.9 nM and > 75 µM
SK-OV-3 ovarian
  TGI: 60.8 nM and 2.13 µM
SF-295 CNS
  TGI: 487 nM and > 75 µM
HCT-116 colon
  TGI: 49.1 nM and > 75 µM
OVCAR-8 ovarian
  TGI: 54 nM and > 75 µM
M14 melanoma
  TGI: 145 nM and < 7.5 nM
HL-60(TB) leukemia
  TGI: 646 nM and < 7.5 nM
HCT-15 colon
  TGI: 75.2 nM and > 75 µM

## Nc1ncnc2c(C3OC(CO)C(O)C3O)scc12 (stereo not drawn)
UACC-62 melanoma
  TGI: 1.6 µM and 50.2 nM
UACC-257 melanoma
  TGI: 795 nM and 12.9 µM
DLD-1 colon
  TGI: 54.4 nM and 1.09 µM
OVCAR-8 ovarian
  TGI: 63.5 nM and 731 nM

## CC1(C)CC(=O)c2c(ccc(C(=O)C[C@H](N)CO)c2N)O1
UACC-62 melanoma
  GI50: 2.69 µM and 233 nM
MCF7 breast
  GI50: 2.41 µM and 169 nM
SF-539 CNS
  GI50: 3.57 µM and 336 nM
HCC-2998 colon
  GI50: 3.59 µM and 214 nM
OVCAR-3 ovarian
  GI50: 2.2 µM and 201 nM
SR leukemia
  TGI: 17.5 µM and 269 nM
M14 melanoma
  GI50: 5.56 µM and 303 nM
CCRF-CEM leukemia
  GI50: 5.38 µM and 186 nM
LOX IMVI melanoma
  GI50: 2.85 µM and 64.8 nM
  TGI: 17.5 µM and 135 nM
SN12C renal
  GI50: 5.7 µM and 416 nM
SK-MEL-28 melanoma
  GI50: 4.41 µM and 238 nM
HT29 colon
  GI50: 1.92 µM and 141 nM
